Experimental data reported in PubChem BioAssay AID1347417 (National Center for Advancing Translational Sciences (NCATS), 2020).
About 5,300 (4.4%) of roughly 120,000 compounds were called active. Inconclusive means that the source gave no clear call. Such entries were picked first, then a sample of the others. The call rests on the fitted dose curve; in most records, active means well fitted inhibition curve with a large enough effect; inconclusive means small, poorly fitted or top-dose-only effect; inactive means no such curve, though single readings can be large or run the other way. Where the call is inconclusive, the potency comes from a doubtful curve fit.

test: qHTS Primary assay for Inhibitors of Plasmodium falciparum Dd2 growth in vitro; further: nearly all actives have a fitted effect of over 65% in size;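 on activity, negative = inhibition: plate controls were DMSO vehicle for no effect and reference drug for full effect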; settings: P. falciparum Dd2 growth, SYBR Green, 72 h; activity, negative = inhibition: at 28.9 µM (top of the series) unless noted; series mostly up to 28.9 µM
How it was run: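 Readout: SYBR Green fluorescence, 485 nm excitation, 535 nm emission, after ~16 h lysis at 37C. Before that, Dd2-infected red cells (2.5% hematocrit) grew 72 h with compound, 29 uM top final concentration.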
Potency means the concentration at half of the fitted maximal effect; tags describe the fitted curve by direction and shape.

| Structure (SMILES) | Potency | activity, negative = inhibition | outcome |
| --- | --- | --- | --- |
| O=C(COc1ccc(Cl)cc1)Nc1ccc2nc(SCC(=O)N3CCCC3)sc2c1 | inconclusive: 17.8 µM [inhibitor, single point] |  |  |
| COc1cccc(C(=O)N(C)Cc2ccccc2C(F)(F)F)c1 | inconclusive: 17.8 µM [inhibitor, single point] |  |  |
| CC(=O)Nc1ccc(S(=O)(=O)N2C[C@@H]3C[C@H](C2)c2c(-c4ccc(OC(F)(F)F)cc4)ccc(=O)n2C3)cc1 | inconclusive: 7.94 µM [inhibitor, partial curve] |  |  |
| CCC(CC)NC(=O)CCC1CCN(C(=O)c2ccc(C)cc2)CC1 |  | inactive: -4.91% |  |
| Cc1cccc(NS(=O)(=O)c2ccc3[nH]c4c(c3c2)CCCCCC4)c1 | inconclusive: 20 µM [inhibitor, partial curve, poor fit] |  |  |
| Cc1ccc(-n2nc(C)c3c(C)c(CCC(=O)NCc4ccccc4Cl)c(C)nc32)cc1C | inconclusive: 17.8 µM [inhibitor, single point] |  |  |
| Cc1ccc(C)c(N2CCN(C(=O)c3cc4c(=O)n(Cc5ccccc5)ccc4nc3C)CC2)c1 | inconclusive: 10 µM [inhibitor, single point] |  |  |
| O=C(N[C@@H]1CCC[C@@H]1C(=O)NCCc1cccs1)c1ccncc1 | inconclusive: 20 µM [inhibitor, single point] |  |  |
| COCc1ccc2c(c1)c(OC(C)(C)C(=O)N1CCN(C)CC1)nn2Cc1ccccc1 | inconclusive: 2.82 µM [inhibitor, partial curve, poor fit] |  |  |
| Cc1ccc(OCCC2CCN(C(=O)Cc3ccsc3)C2)cc1 (stereo not given) | inconclusive: 3.16 µM [inhibitor, single point] |  |  |
| Cc1ccc2c(c1)N(C(=O)N1CCC(C(=O)NCCc3ccc(Cl)cc3)CC1)CC(C)O2 (stereo not given) | active: 8.91 µM |  |  |
| Cc1ccc(NC(=O)C2CN(S(=O)(=O)C3CC3)CC23CCCCC3)c(C)c1 (stereo not given) | inconclusive: 14.1 µM [inhibitor, partial curve, poor fit] |  |  |
| Cc1cnc(C(=O)N2CCC3(CC2)NCCc2c3[nH]c3ccccc23)cn1 | inconclusive: 7.94 µM [inhibitor, partial curve, poor fit] |  |  |
| COc1ccc(NC(=O)c2c(NC(=O)COc3ccccc3)sc3c2CCC(C(C)(C)C)C3)cc1 (stereo not given) | inconclusive: 10 µM [inhibitor, single point] |  |  |
| Cc1ccc(CN(Cc2ccco2)C(=O)c2ccc(OCC(C)C)cc2)cc1 |  | inactive: -3.75% |  |
| CNC(=O)c1ccc(CNc2nc(CCN)nc3sc(C)c(C)c23)o1 | active: 10 µM |  |  |
| N#Cc1ccc(CN2CCC3(CC2)COc2ccccc2C(=O)N3)cc1 | active: 2.51 µM |  |  |
| COc1ccc(C(=O)N2CCC3(C2)C(=O)N(c2ccccc2)c2ccccc23)cc1 (stereo not given) | inconclusive: 10 µM [inhibitor, partial curve] |  |  |
| COc1ccc(NC(=O)CSc2nc3nc(C)c(Cc4ccccc4)c(C)n3n2)cc1OC | inconclusive: 17.8 µM [inhibitor, partial curve, poor fit] |  |  |
| O=C(C1CCN(S(=O)(=O)c2cccc3nonc23)CC1)N1CCN(c2cccc(Cl)c2)CC1 | inconclusive: 17.8 µM [inhibitor, single point] |  |  |

| Structure (SMILES) | Potency | activity, negative = inhibition | outcome |
| --- | --- | --- | --- |
| O=C(c1ccc2c(c1)OCO2)N1CCCN(c2cc(-c3ccc(Cl)cc3)[nH]n2)CC1 |  |  | inactive |
| CCCc1noc(-c2cccn3c(CNC(=O)Cc4cccc(OC)c4)nnc23)n1 | inconclusive: 1.26 µM [inhibitor, partial curve, poor fit] |  |  |
| CC(C)N(C)Cc1ccc(-c2nc(-c3cccnc3)cc(=O)[nH]2)cc1 |  | inactive: -27.5% |  |
| Cc1ccc(NC(=O)C2(Cc3ccccc3)CCCCC(=O)N2)cc1 (stereo not given) | inconclusive: 20 µM [inhibitor, single point] |  |  |
| C[C@]1(CO)[C@H]2Cc3sc(NC(=O)c4c(F)cccc4F)nc3[C@@H](CC(=O)NCCN3CCOCC3)[C@]2(C)CC[C@H]1O |  |  | inactive |
| CC(C)OCCCn1c(SCC(=O)c2ccccc2)nc2c(sc3ccccc32)c1=O | inconclusive: 3.16 µM [inhibitor, partial curve, poor fit] |  |  |
| O=Cc1ccc(N2CCN([S+](=O)([O-])C3CC3)CC2=O)cc1 |  | inconclusive: -56.8% [inhibitor] |  |
| COc1cccc(-c2n[nH]c3c2CC(=O)N(CC2CCOCC2)C3)c1OC |  |  | inactive [at 44.1 µM] |
| CCOc1ccccc1CNC(=O)C1CCN(c2nnc(-n3c(C)ccc3C)s2)CC1 | inconclusive: 10 µM [inhibitor, single point] |  |  |
| O=C(c1nc(-c2ccc(Cl)cc2)c2ccccn12)N1CCCC1 | active: 11.2 µM |  |  |
| CCCCOc1ccc(C2=NC(c3ccncc3)=Nc3ccc(OCC)cc3N2)cc1 | inconclusive: 14.1 µM [inhibitor, single point] |  |  |
| CN1CCC(C(=O)N2Cc3ccccc3CC3(CCCN(Cc4ccccc4)C3)C2)CC1 (stereo not given) | inconclusive: 3.55 µM [inhibitor, partial curve, poor fit] |  |  |
| Cc1ccc(-c2nnc(C3CN(C(=O)Cc4cccc(C)c4)CC34CCOCC4)o2)cc1 (stereo not given) | inconclusive: 17.8 µM [inhibitor, single point] |  |  |
| COc1ccc2sc(N(Cc3cccnc3)C(=O)C3CCCCC3)nc2c1 | inconclusive: 3.55 µM [inhibitor, single point] |  |  |
| COc1cccc(C(=O)N2CCCC(n3cc(-c4nc(C(C)C)no4)nn3)C2)c1 (stereo not given) | inconclusive: 3.98 µM [inhibitor, single point] |  |  |
| O=C1CC2(CCN(Cc3cccc4ccccc34)CC2)Oc2cc(Cl)ccc21 | inconclusive: 2 µM [inhibitor, partial curve, poor fit] |  |  |
| COc1ccc(CCNC(=O)CC(c2ccccc2OC)c2c[nH]c3ccccc23)cc1OC (stereo not given) | inconclusive: 1.41 µM [inhibitor, full curve, poor fit] |  |  |
| COc1cccc(CN2CCC3(CC2)CC(O)CCO3)n1 (stereo not given) |  | inactive: -9.83% |  |
| Cc1noc(-c2cn(C3CCN(C(=O)COc4ccc(F)cc4)CC3)nn2)n1 |  | inactive: -9.91% |  |
| CCOc1ccc(C(=O)NC2CCN(c3cc(-c4ccc(Cl)cc4)[nH]n3)C2)cc1 (stereo not given) | inconclusive: 17.8 µM [inhibitor, single point] |  |  |
